Laboratory results published in PubChem BioAssay AID624418 (National Center for Advancing Translational Sciences (NCATS), 2012).
Among all 410,000 compounds or so, about 530 (0.13%) were called active. Inconclusive results, whose numbers are uncertain, are shown with a selection of clear calls. The call rests on the fitted dose curve; in most records, active means well fitted inhibition curve with a large enough effect; inconclusive means small, poorly fitted or top-dose-only effect, or another doubt; inactive means no such curve, though single readings can be large or run the other way. Potencies beside an inconclusive call are fits to weak or partial responses and may not hold up.

Test: qHTS of GLP-1 Receptor Inverse Agonists: Cytotox Screen
Settings: HEK293 cAMP-luciferase reporter cells, luminescence, 24 h; series mostly up to 38.3 µM
Summary of the method: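 A 23 nL compound transfer followed 12 hours of cell culture at 37 deg C; exposure then lasted 24 hr. Luciferase assay detection reagent was dispensed and plates read for luminescence after a 12 min room-temperature wait.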
Potency means the concentration at half of the fitted maximal effect.

Compound	Potency
CC1CCN(c2ncnc3c2cnn3-c2ccc(F)cc2)CC1	inactive
Fc1cc(F)c(C2SCCN2C(=S)Nc2cccc(C(F)(F)F)c2)c(F)c1 (stereo not drawn)	inconclusive: 22.4 µM [inhibitor, single point]
CN(C)c1ccc(/C=N\NC(=O)c2cccc3cc[nH]c23)cc1	inactive
Cc1ccc(NC(=S)Nc2cc(C(=O)O)ccc2N2CC3CC(C2)c2cccc(=O)n2C3)cc1C (stereo not drawn)	inconclusive: 28.2 µM [inhibitor, single point]
C#CCOCCOCCOCCNc1nc(N2CCN(C(=O)CCCCCCCCCCNC(=O)[C@H](CCCCN)n3cc(C[C@@H](C)CC)nn3)CC2)nc(N2CCN(C(=O)CCCCCCCCCCNC(=O)[C@@H]([C@H](C)O)n3cc(C)nn3)CC2)n1	inconclusive: 12.6 µM [inhibitor, single point]
COc1ccc(C=O)cc1CSc1ccccn1	inactive
COc1ccc(/C=N/NC(=S)NCc2ccccc2)cc1OC	inconclusive: 10 µM [inhibitor, single point]
Cc1onc(-c2ccccc2)c1C(=O)NNC(=S)NC(=O)c1ccc2c(c1)OCO2	inconclusive: 1.26 µM [inhibitor, partial curve, poor fit]
Cc1[nH]c(N=Nc2ccccc2)nc1N=Nc1ccccc1	inconclusive: 11.2 µM [inhibitor, partial curve, poor fit]
O=C(Nc1ccc2oc(=O)ccc2c1)c1ccco1	inactive
COc1cc2c(cc1OC)C(/C=C/c1ccco1)=NCC2	inconclusive: 12.6 µM [inhibitor, single point]
CN(C)C=NC(=O)c1[nH]c2ccc(Cl)cc2c1-c1ccccc1	inconclusive: 15.8 µM [inhibitor, single point]
COc1nc(NCCc2ccc(OC)c(OC)c2)nc(Nc2ccccc2)n1	inactive
CCC(=O)NC(c1cccs1)c1ccc2cccnc2c1O (stereo not drawn)	inconclusive: 0.501 µM [inhibitor, full curve, poor fit]
O=C(CCCn1c(=S)[nH]c2cc3c(cc2c1=O)OCO3)NCc1cccc(Cl)c1	inactive
CCC(=O)Nc1ccc(Nc2nc(C)c([N+](=O)[O-])c(Nc3ccc(NC(=O)CC)cc3)n2)cc1	inconclusive: 10 µM [inhibitor, partial curve, poor fit]
Cc1cc2nc(-c3ccc(SCC(=O)N4CCOCC4)nc3)[nH]c2cc1C	inconclusive: 11.2 µM [inhibitor, partial curve, poor fit]
O=C(Nc1ccc(Cl)c(C(F)(F)F)c1)NC1CC2CCCC(C1)N2Cc1ccccc1 (stereo not drawn)	inconclusive: 11.2 µM [inhibitor, partial curve, poor fit]
N=c1c2c(-c3ccccc3)c(-c3ccccc3)n(Cc3ccco3)c2ncn1CCCO	inconclusive: 20 µM [inhibitor, single point]
O=C1C2CCCN2C(c2ccccc2)N1c1nccs1 (stereo not drawn)	inactive
O=[N+]([O-])c1ccc(P(=O)(Cc2ccccc2)c2ccccc2O)cc1 (stereo not drawn)	inconclusive: 22.4 µM [inhibitor, single point]
O=C(O)CSCCCC(=O)Nc1ccc(Br)cc1	inconclusive: 5.01 µM [inhibitor, full curve]
Cc1cc(C)c(/C([O-])=C(/C(=S)Nc2ccc(SC(F)F)cc2)[n+]2ccccc2)cc1C	inactive

Compound	Potency
COc1ccc(C(=O)/C=C2\Sc3ccccc3N2C)cc1	inactive
Cc1ccc(O)c(C(=O)c2cnc3c(c2)CN(CCC(C)C)C(=O)N3)c1	inconclusive: 28.2 µM [inhibitor, single point]
CN(C)S(=O)(=O)c1cccc(NC(=S)N/N=C/C(=O)c2ccccc2)c1	inconclusive: 10 µM [inhibitor, partial curve]
COc1cccc(-n2c(SCC(=O)Nc3cc(C)ccc3C)nc3c(oc4ccccc43)c2=O)c1	inactive
O=C(Nc1nnc(C2COc3ccccc3O2)o1)c1ccc(F)cc1 (stereo not drawn)	inconclusive: 31.6 µM [inhibitor, single point]
COc1ccc(NC(=O)CCS(=O)(=O)c2nc(-c3cccs3)cc(C(F)(F)F)n2)cc1OC	inconclusive: 12.6 µM [inhibitor, partial curve, poor fit]
C/C(=N\Nc1ccccn1)c1ccc(OC(F)F)cc1	inconclusive: 11.2 µM [inhibitor, single point]
COc1ccc(NC(=O)CSc2nc3c(sc4ccccc43)c(=O)n2CCCN2CCCC2)cc1	inconclusive: 28.2 µM [inhibitor, single point]
Oc1ccc(N=Cc2ccc(-c3cccs3)s2)cc1	inconclusive: 2.24 µM [inhibitor, full curve, poor fit]
C=CCOc1ccc(/C=N/Nc2ccccn2)cc1OC	inconclusive: 14.1 µM [inhibitor, single point]
CN1CCC[C@@H]1CCNC(=O)c1c(-c2ccc3c(c2)OCO3)noc1-c1ccsc1	inconclusive: 35.5 µM [inhibitor, partial curve, poor fit]
Cc1nc2scc(C)n2c(=O)c1S(=O)(=O)NCc1ccc(F)cc1	inactive
COc1ccccc1/C=C/C(=O)c1ccc(NC(C)=O)cc1	inconclusive: 22.4 µM [inhibitor, single point]
Cc1cc(Br)ccc1NC(=S)NC1CCCC1	inconclusive: 10 µM [inhibitor, single point]
O=[N+]([O-])c1cc(S(=O)(=O)N2CCCCCC2)ccc1F	inconclusive: 28.2 µM [inhibitor, single point]
COc1ccccc1NS(=O)(=O)c1cccc2cccnc12	inactive
COc1cccc(CNc2ccc3c(c2)CCC3)c1	inconclusive: 0.316 µM [inhibitor, full curve, poor fit]
CCCCCCCCCc1nc2sc3c(c2c(=O)n1NC(=O)c1ccc([N+](=O)[O-])cc1)CC(C)(C)OC3	inconclusive: 28.2 µM [inhibitor, single point]
COc1cccc(N2CC(O)=C(c3nc4ccccc4c(=O)[nH]3)C2=N)c1	inconclusive: 1.12 µM [inhibitor, full curve, poor fit]
C#CC[N+](C)(C)CCCCCCCCC	inconclusive: 28.2 µM [inhibitor, single point]
CCOc1ccc(-c2nnn(CC#N)n2)cc1OC	inconclusive: 11.2 µM [inhibitor, single point]
COCc1c(C(=O)Nc2ccc3nc(N4CCOCC4)sc3c2)oc2ccccc12	inconclusive: 28.2 µM [inhibitor, single point]
CN(C(=O)Nc1ccc(Cl)c(Cl)c1)c1ccccc1C(=O)O	inactive

Compound	Potency
Brc1cc(-c2ccccc2)nc(-c2ccccc2)n1	inconclusive: 28.2 µM [inhibitor, single point]
CC(C)(C)Nc1nc(OCC#N)nc(N2CCCCC2)n1	inactive
CCOC(=O)C1CCN(c2cc3c(cc2NC(=O)c2ccccc2OCC)n(C)c(=O)n3C)CC1	inconclusive: 31.6 µM [inhibitor, single point]
COc1ccc(NC(=S)Nc2cc(C)[nH]n2)cc1Cl	inactive
CCc1ccc2oc(C(=O)N3CCN(c4ccccc4OC)CC3)cc(=O)c2c1	inconclusive: 28.2 µM [inhibitor, single point]
CC(=O)C1=C(c2ccc(Br)cc2)C(=O)c2ccccc2C1=O	active: 3.55 µM
O=C(CSc1nnc(-c2ccc(O)cc2)n1Cc1ccco1)N1CCc2ccccc2C1	inconclusive: 10 µM [inhibitor, single point]
Cc1cc(C)c2sc(N(CCN(C)C)C(=O)CCS(=O)(=O)c3ccccc3)nc2c1	inconclusive: 20 µM [inhibitor, single point]
O=C(CCl)N=c1sccn1Cc1ccccc1Cl	inconclusive: 31.6 µM [inhibitor, single point]
Clc1cccc(N=C2NN=C(c3ccc4c(c3)OCCO4)CS2)c1	inconclusive: 10 µM [inhibitor, partial curve, poor fit]
CCOc1ccccc1NS(=O)(=O)c1ccc2oc(=O)c3ncn(C)c3c2c1	inconclusive: 11.2 µM [inhibitor, single point]
CCN(CC)c1ccc(NC(=O)c2ccc(=O)[nH]c2)cc1S(=O)(=O)Nc1ccccc1OC	inconclusive: 1.58 µM [inhibitor, full curve]
CCC(c1ccc(O)c(O)c1)C(CC)c1ccc(O)c(O)c1 (stereo not drawn)	inconclusive: 11.2 µM [inhibitor, partial curve, poor fit]
c1ccc(C(=NNc2nc3ccccc3s2)c2ccccn2)cc1	inconclusive: 0.316 µM [inhibitor, full curve, poor fit]
Cc1ccc(NC(=S)N2CCCN(Cc3ccc(F)cc3)C2)c(C)c1	inactive
COc1ccc(C(=O)N2CCC(C(=O)Nc3ccccc3Cl)CC2)cc1	inactive
CCCn1cc(S(=O)(=O)c2ccccc2)c(=O)c2cc(F)c(N3CCCC3)cc21	inactive
COCc1c(C(=O)OCC(=O)N2c3ccccc3NC(=O)C2(C)C)oc2ccccc12	inconclusive: 28.2 µM [inhibitor, single point]
Cc1cc(Cl)cc(Cl)c1OCCOc1cccc2cccnc12	inactive
C[C@@H]1CN([C@H](C)CO)C(=O)CCCn2nncc2CO[C@H]1CN(C)Cc1ccc(Oc2ccccc2)cc1	inactive
CCCc1nc(SCC(=O)Nc2ccc(N3CCOCC3)cc2)c2ccccc2n1	inactive
COc1cc2nc(N3CCNCC3)nc(N)c2cc1OC	inconclusive: 7.08 µM [inhibitor, partial curve, poor fit]
